PubChem BioAssay AID463173 (ICCB-Longwood Screening Facility, Harvard Medical School, 2010)
Among all 52,000 compounds or so, about 1,700 (3.3%) were called active. Rule as the data show it: active = survival mostly below about 52% (no sharp cut-off); inactive = mostly above about 56%. The list shows a part of the results.

Each molecule was assayed on Wild type (assay: growth inhibition of S. aureus wild type versus tarO mutant, primary screen, teichoic acid synthesis inhibitors, RN4220, OD600 (AID 463173)). Details: S. aureus RN4220 wild type/DeltatarO growth, OD600, 18 h, stronger effect = lower value, screened at 18.75 µg/mL (by protocol).

Row | Structure (SMILES) | survival
1 | COC(=O)c1ccc(NC(=O)CCS(=O)(=O)c2ccc(Br)s2)cc1 | inactive: 87%
2 | Cc1nc(N2CCCC2)ncc1C(=O)NCc1cccc(Cl)c1 | inactive: 72%
3 | O=C(Nc1ccccc1)/C(=C/c1ccccc1)NC(=O)c1ccco1 | inactive: 110%
4 | CCc1ccc(NC(=O)CSc2nc3ccccc3nc2Cc2ccc(C)cc2)cc1 | inactive: 75%
5 | CCN1CCN(c2ccc(NC(=O)COc3ccccc3)cc2)CC1 | inactive: 113%
6 | COc1ccc(C)cc1NC(=O)CN1c2ccccc2S(=O)(=O)c2ccccc21 | inactive: 88%
7 | COc1ccc(C(=O)CSc2nc(C)cc(C)c2C(=O)Nc2ccccc2C)cc1 | inactive: 83%
8 | Cc1nnc(N2C(=O)c3oc4ccccc4c(=O)c3C2c2ccc(C(C)(C)C)cc2)s1 (stereo not given) | inactive: 129%
9 | COC(=O)c1ccc(NC(=O)CC2C(=O)N(c3cccc(OC)c3)C(=O)N2Cc2ccco2)cc1 (stereo not given) | inactive: 79%
10 | COCCNC(=O)c1ccc2c(=O)n(CCc3ccccc3)c(SCC(=O)CC(=O)OC)nc2c1 | inactive: 78%
11 | COc1cccc(-c2nc(S(=O)(=O)c3ccccc3)c(N3CCCCC3)o2)c1 | inactive: 81%
12 | CCC(C)NC(=O)CSc1nc2cc3c(cc2c(=O)n1CCCC(=O)NCCc1ccc(OC)c(OC)c1)OCO3 (stereo not given) | inactive: 82%
13 | CCC(C(=O)NCc1ccccc1)N(C(=O)Cn1nnc(-c2cccs2)n1)c1ccccc1OC (stereo not given) | inactive: 108%
14 | Cc1cccc(OCCSc2nc3ccccc3n2CC(=O)N2CCOCC2)c1 | inactive: 82%
15 | c1ccc2c(NC3CCCC3)nc(N3CCNCC3)nc2c1 | inactive: 111%
16 | COc1ccccc1CNC(=O)c1ccc(CS(=O)(=O)c2c(Cl)cccc2Cl)o1 | inactive: 70%
17 | CCCn1c(=O)c2sccc2n2c(CCCC(=O)N3CCN(c4ccccc4OC)CC3)nnc12 | inactive: 107%
18 | CCOC(=O)c1c(C)[nH]c(C)c1S(=O)(=O)N(C)CC(=O)Nc1cc(Cl)ccc1C | inactive: 71%
19 | Cc1ccccc1OCCCCn1c(-c2ccc(Cl)cc2)nc2ccccc2c1=O | inactive: 70%
20 | CCOC(=O)c1ccc(N2C(=O)c3[nH]nc(-c4ccc(C)cc4)c3C2c2ccc(O)c(OCC)c2)cc1 (stereo not given) | inactive: 91%
21 | C=CCNC(=O)c1ccc2nc(-c3ccco3)c(-c3ccco3)nc2c1 | inactive: 120%
22 | CCc1ccc(CNC(=O)c2c3c(nc4ccccc24)C(=O)N(C2CCCCC2)C3)cc1 | inactive: 32%
23 | COc1cc2c(=O)c(C(=O)c3ccc(C)c(C)c3)cn(Cc3ccccc3F)c2cc1OC | inactive: 127%

Row | Structure (SMILES) | survival
24 | CCn1c(SCC#N)nnc1-c1ccc(S(=O)(=O)N2CCCC2)cc1 | inactive: 100%
25 | COC(=O)c1cc(-c2ccccc2)oc1CN | inactive: 123%
26 | Cc1ccc2c(=O)cc(C(=O)Nc3sc4c(c3C(=O)NCc3ccco3)CCC4)oc2c1 | inactive: 88%
27 | CC1=C(C(=O)OCc2ccc(C)cc2)C(c2ccccc2F)CC(=O)N1 (stereo not given) | inactive: 115%
28 | COc1cc(NC(=O)CCc2c(C)nn(-c3ccc(N4CCOCC4)nn3)c2C)cc(OC)c1OC | inactive: 119%
29 | O=C(NCc1ccccc1F)C1CCN(c2nnc(-n3cccc3)s2)CC1 | inactive: 84%
30 | COc1ccccc1NC(=O)CSc1nnc(-c2ccccc2C)o1 | inactive: 80%
31 | COc1ccc2c(c1)c(=O)c(C(=O)c1ccccc1)cn2CC(=O)Nc1ccc2c(c1)OCCO2 | inactive: 91%
32 | O=C1CC(Cc2ccccc2)C(=O)N1Cc1ccco1 (stereo not given) | inactive: 103%
33 | COc1cccc(CNC(=O)C2CCN(c3nc4ccc(Cl)cc4[nH]3)CC2)c1 | inactive: 78%
34 | CCCCc1cc(=O)oc2cc(C)c3c(C)coc3c12 | inactive: 96%
35 | CSc1ncc(Cl)c(C(=O)Nc2ccc(S(=O)(=O)N3CCC(C)CC3)cc2)n1 | inactive: 87%
36 | Cn1cnc(S(=O)(=O)N2CCCC(C(=O)Nc3ccc(F)cc3Cl)C2)c1 (stereo not given) | inactive: 79%
37 | Cc1ccc(Cn2c(C(=O)Nc3cccc(Cl)c3)cc3sccc32)cc1 | inactive: 83%
38 | Cn1nnnc1SCCNCc1ccccc1OCc1ccccc1F | inactive: 121%
39 | Cc1ccc(C2c3c(-c4ccccc4O)n[nH]c3C(=O)N2CCCO)cc1 (stereo not given) | inactive: 69%
40 | CCOC(=O)c1cccc(NC(=O)c2ccc3c(c2)nnn3C2CCCC2)c1 | inactive: 80%
41 | O=C(NCCn1cc(SCc2ccc(F)cc2)c2ccccc21)c1c(F)cccc1F | inactive: 68%
42 | COC(=O)C1C(c2ccccc2)C(C(=O)OCc2ccco2)C1c1ccccc1 (stereo not given) | inactive: 118%
43 | CSc1nc(C)cc(Nc2c(C)cc(C)cc2C)n1 | inactive: 84%
44 | COc1cccc(C(=O)Nc2ccc(Cl)c(-c3nc4ccccc4[nH]3)c2)c1 | inactive: 66%
45 | COc1ccc2c(c1)CC(NC(=O)Nc1cc(Cl)ccc1OC)CO2 (stereo not given) | inactive: 83%
46 | CC(=O)c1ccc(N2CCN(S(=O)(=O)c3ccc4c(c3)CC(C)N4C(=O)C3CCC3)CC2)cc1 (stereo not given) | inactive: 74%

Row | Structure (SMILES) | survival
47 | COC(=O)c1ccc(NS(=O)(=O)c2ccc(-n3cccn3)cc2)cc1 | inactive: 72%
48 | O=C(O)CSc1nnc(-c2ccccc2)o1 | inactive: 109%
49 | CCc1ccc(OCCCSc2nc(-c3ccc(C(C)(C)C)cc3)nc3cc(=O)[nH]n23)cc1 | inactive: 73%
50 | Cc1ccc(S(=O)(=O)c2cn(C)c3cc(N4CCCCCC4)c(F)cc3c2=O)cc1 | inactive: 80%
51 | Cc1ccccc1NC(=O)c1ccc2nc(Cc3ccccc3)oc2c1 | inactive: 81%
52 | COc1ccccc1C(=O)Nc1c(C(=O)N(CCN(C)C)Cc2ccco2)oc2ccccc12 | inactive: 65%
53 | Cc1ccc(Cn2c(=O)n(-c3ccccc3)c(=O)c3ccc(C(=O)NCc4ccco4)cc32)cc1 | inactive: 88%
54 | C=Cc1ccc(Cn2c(C(=O)O)c(CNCc3cccs3)c3ccc(C)cc32)cc1 | inactive: 71%
55 | S=c1[nH]c2ccccc2n1CCOc1ccccc1 | inactive: 113%
56 | Cn1c(SCc2ccc(F)cc2)nc2c([nH]c3ccccc32)c1=O | inactive: 79%
57 | O=C(CCSCc1cnn(-c2ccccc2)c1-n1cccc1)NCc1ccccc1F | inactive: 77%
58 | CCOc1ccc(NC(=O)c2cc3c(-c4ccccc4F)nn(C)c3s2)cc1 | inactive: 124%
59 | CC(C)(C)OC(=O)N1CCC(c2c(C(=O)NCc3ccc(F)cc3)cnn2-c2ccc(F)cc2)CC1 | active: -6%
60 | COc1cccc(C(=O)N(Cc2sccc2C)C2CCS(=O)(=O)C2)c1 (stereo not given) | inactive: 84%
61 | CCOC(=O)c1c(C)oc2nc(C)nc(N3CCN(c4ccc(C(C)=O)cc4)CC3)c12 | inactive: 91%
62 | COc1ccc2cc3cc(C(=O)N4CCN(c5ccc(C(C)=O)cc5)CC4)sc3nc2c1Cl | inactive: 75%
63 | Cc1ccc(-c2cn3c(n2)sc2cc(C(=O)NCCCN4CCCCC4)ccc23)cc1 | active: -1%
64 | COc1ccc(C(=O)Nc2cc(-c3cccc(C)c3)nn2-c2ccccc2)cc1 | inactive: 124%
65 | COc1ccc(OCC2c3cc(OC)c(OC)cc3CCN2C(=O)c2ccc(F)cc2)cc1 (stereo not given) | inactive: 128%
66 | CCN(CC)CCNC(=O)c1sc2nc3n(c(=O)c2c1C)CCCCC3 | inactive: 87%
67 | O=S(=O)(NCc1nc2cccnc2n1Cc1ccc(F)cc1)c1ccc2c(c1)CCCC2 | inactive: 69%
68 | CCOC(=O)c1ccc(NC(=O)c2c(NCc3cccs3)sc3c2CCCCC3)cc1 | inactive: 126%
69 | Nc1nc2sc3c(c2cc1C(=O)N1CCOCC1)CCCC3 | inactive: 103%

Row | Structure (SMILES) | survival
70 | Cc1ccc(-c2nc(C#N)c(NCCN3CCCCC3)o2)cc1 | inactive: 100%
71 | O=S(=O)(NCCc1csc2nc(-c3ccc(F)cc3)nn12)c1ccc(Br)cc1 | inactive: 71%
72 | Cc1cc(NC(=O)Cn2c(=O)nc(-c3ccccc3F)c3cc(Cl)ccc32)ccc1Br | inactive: 147%
73 | CC1=C(C(=O)Nc2ccccc2C)C(c2ccncc2)n2nc(SCc3ccccc3)nc2N1 (stereo not given) | inactive: 84%
74 | COc1cc(C(=O)N2CCc3ccccc32)cc(OC)c1OC | inactive: 115%
75 | Cc1cc(S(=O)(=O)N2CCOCC2)ccc1N=Cc1c(C)[nH]n(-c2ccc(Cl)cc2)c1=O | inactive: 101%
76 | Cc1cccc(Cn2c(CN3CCC(C(=O)NCc4cccnc4)CC3)cc3ccccc32)c1 | inactive: 71%
77 | Cc1ccc(NC(=O)Cn2c(=O)n(-c3ccc(Cl)c(Cl)c3)c(=O)c3c(C)c(C)sc32)c(C)c1 | inactive: 86%
78 | O=C(O)CSc1nnc(-c2ccccc2)n1-c1ccccc1 | inactive: 108%
79 | CCN1CCN(c2cc(C)c3cc(NC(=O)c4cccc(C(F)(F)F)c4)ccc3n2)CC1 | inactive: 79%
80 | COc1cn(CC(=O)Nc2ccc(F)cc2)c(CN2CCCCC2)cc1=O | inactive: 72%
81 | COc1cccc(CSc2nc3n(n2)C(c2cccs2)C(C(=O)Nc2ccccc2C)=C(C)N3)c1 (stereo not given) | inactive: 71%
82 | CCOC(=O)c1c(N)n(-c2ccc(Cl)c(Cl)c2)c2nc3ccccc3nc12 | inactive: 77%
83 | Cc1cc(C)nc(SCCSc2nc(C)cc(C)n2)n1 | inactive: 99%
84 | COc1nc(N2CCCCCC2)nc(N2CCCCCC2)n1 | inactive: 104%
85 | CCOC(=O)c1ccc(NC(=O)CC2C(=O)N(c3cccc(OC)c3)C(=O)N2C2CCCCC2)cc1 (stereo not given) | inactive: 75%
86 | O=S(=O)(N1CCCCC1)N1CCN(c2ccc(F)cc2)CC1 | inactive: 116%
87 | Cc1ccc(OCCn2cc(C(=O)C3CCCCC3)c3ccccc32)cc1 | active: 1%
88 | COc1ccc(C(c2nnnn2C2CCCCC2)N2CCC(C)CC2)cc1OC (stereo not given) | inactive: 104%
89 | COC(=O)c1ccc(Cl)cc1NC(=O)N1CCCn2nc(C)cc21 | inactive: 128%
90 | COc1cc(OC)c(NC(=O)CCCn2nc(C)c3sc4ccccc4c3c2=O)cc1Cl | inactive: 60%
